Experimental data reported in the supplement of paper PMC8728848.
The list shows a part of the results.

What was measured:
Experiment in all cases: glycan array binding signal (z-score within array); higher = stronger binding
Conditions in all cases: glycan notation: IUPAC condensed, linker removed
[1] = target: Neu5Ac(a2-3)Gal(b1-4)[Fuc(a1-3)]GlcNAc(b1-3)GalNAc
How it was run: (§1)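 Glycan array binding is given as a within-array Z-score, which can be read as non-binding when negative. The arrays, 3228 of them, came from the Consortium for Functional Glycomics database and were retained only where the protein sequence was available. Z-scores were averaged across arrays of the same protein sequence at different concentrations or buffers and across linkers.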

[2] = target: Neu5Ac(a2-3)Gal(b1-4)[Fuc(a1-3)]GlcNAc(b1-6)[Gal(b1-3)]GalNAc
How it was run: as §1

[3] = target: Neu5Ac(a2-3)Gal(b1-4)[Fuc(a1-3)]GlcNAc(b1-6)[Neu5Ac(a2-3)Gal(b1-3)]GalNAc
How it was run: as §1

[4] = target: Neu5Ac(a2-3)Gal(b1-4)[Fuc(a1-3)]GlcNAc6S
How it was run: as §1

[5] = target: Neu5Ac(a2-3)Gal6S(b1-4)GlcNAc
How it was run: as §1

[6] = target: Neu5Ac(a2-3)Gal6S(b1-4)[Fuc(a1-3)]GlcNAc
How it was run: as §1

Neu5Ac(a2-3)GalNAc = target: Neu5Ac(a2-3)GalNAc
How it was run: as §1

[7] = target: Neu5Ac(a2-3)GalNAc(b1-4)GlcNAc
How it was run: as §1

[8] = target: Neu5Ac(a2-3)[GalNAc(b1-4)]Gal(b1-4)Glc
How it was run: as §1

[9] = target: Neu5Ac(a2-3)[GalNAc(b1-4)]Gal(b1-4)GlcNAc
How it was run: as §1

[10] = target: Neu5Ac(a2-3)[GalNAc(b1-4)]Gal(b1-4)GlcNAc(b1-3)GalNAc
How it was run: as §1

[11] = target: Neu5Ac(a2-3)[Neu5Ac(a2-6)]GalNAc
How it was run: as §1

Neu5Ac(a2-6)Gal = target: Neu5Ac(a2-6)Gal
How it was run: as §1

Neu5Ac(a2-6)Gal(b1-4)Glc = target: Neu5Ac(a2-6)Gal(b1-4)Glc
How it was run: as §1

[12] = target: Neu5Ac(a2-6)Gal(b1-4)GlcNAc
How it was run: as §1

[13] = target: Neu5Ac(a2-6)Gal(b1-4)GlcNAc(b1-2)Man(a1-3)Man(b1-4)GlcNAc(b1-4)GlcNAc
How it was run: as §1

[14] = target: Neu5Ac(a2-6)Gal(b1-4)GlcNAc(b1-2)Man(a1-3)[Gal(b1-4)GlcNAc(b1-2)Man(a1-6)]Man(b1-4)GlcNAc(b1-4)GlcNAc
How it was run: as §1

[15] = target: Neu5Ac(a2-6)Gal(b1-4)GlcNAc(b1-2)Man(a1-3)[GlcNAc(b1-2)Man(a1-6)]Man(b1-4)GlcNAc(b1-4)GlcNAc
How it was run: as §1

[16] = target: Neu5Ac(a2-6)Gal(b1-4)GlcNAc(b1-2)Man(a1-3)[GlcNAc(b1-2)Man(b1-4)GlcNAc(b1-2)Man(a1-6)]Man(b1-4)GlcNAc(b1-4)GlcNAc
How it was run: as §1

[17] = target: Neu5Ac(a2-6)Gal(b1-4)GlcNAc(b1-2)Man(a1-3)[Man(a1-6)]Man(b1-4)GlcNAc(b1-4)GlcNAc
How it was run: as §1

[18] = target: Neu5Ac(a2-6)Gal(b1-4)GlcNAc(b1-2)Man(a1-3)[Neu5Ac(a2-6)Gal(b1-4)GlcNAc(b1-2)Man(a1-6)]Man(b1-4)GlcNAc(b1-4)GlcNAc
How it was run: as §1

[19] = target: Neu5Ac(a2-6)Gal(b1-4)GlcNAc(b1-2)Man(a1-6)Man(b1-4)GlcNAc(b1-4)GlcNAc
How it was run: as §1

[20] = target: Neu5Ac(a2-6)Gal(b1-4)GlcNAc(b1-2)Man(a1-6)[Gal(b1-4)GlcNAc(b1-2)Man(a1-3)]Man(b1-4)GlcNAc(b1-4)GlcNAc
How it was run: as §1

[21] = target: Neu5Ac(a2-6)Gal(b1-4)GlcNAc(b1-2)Man(a1-6)[GlcNAc(b1-2)Man(a1-3)]Man(b1-4)GlcNAc(b1-4)GlcNAc
How it was run: as §1

[22] = target: Neu5Ac(a2-6)Gal(b1-4)GlcNAc(b1-2)Man(a1-6)[Man(a1-3)]Man(b1-4)GlcNAc(b1-4)GlcNAc
How it was run: as §1

[23] = target: Neu5Ac(a2-6)Gal(b1-4)GlcNAc(b1-3)Gal(b1-3)GlcNAc
How it was run: as §1

[24] = target: Neu5Ac(a2-6)Gal(b1-4)GlcNAc(b1-3)Gal(b1-4)GlcNAc
How it was run: as §1

[25] = target: Neu5Ac(a2-6)Gal(b1-4)GlcNAc(b1-3)Gal(b1-4)GlcNAc(b1-3)Gal(b1-4)GlcNAc
How it was run: as §1

[26] = target: Neu5Ac(a2-6)Gal(b1-4)GlcNAc(b1-3)Gal(b1-4)[Fuc(a1-3)]GlcNAc(b1-3)Gal(b1-4)[Fuc(a1-3)]GlcNAc
How it was run: as §1

[27] = target: Neu5Ac(a2-6)Gal(b1-4)GlcNAc(b1-3)GalNAc
How it was run: as §1

[28] = target: Neu5Ac(a2-6)Gal(b1-4)GlcNAc6S
How it was run: as §1

Neu5Ac(a2-6)GalNAc = target: Neu5Ac(a2-6)GalNAc
How it was run: as §1

[29] = target: Neu5Ac(a2-6)GalNAc(b1-4)GlcNAc
How it was run: as §1

[30] = target: Neu5Ac(a2-6)GlcNAc(b1-4)GlcNAc
How it was run: as §1

[31] = target: Neu5Ac(a2-6)GlcNAc(b1-4)GlcNAc(b1-4)GlcNAc
How it was run: as §1

Neu5Ac(a2-8)Neu5Ac = target: Neu5Ac(a2-8)Neu5Ac
How it was run: as §1

[32] = target: Neu5Ac(a2-8)Neu5Ac(a2-3)Gal(b1-4)Glc
How it was run: as §1

[33] = target: Neu5Ac(a2-8)Neu5Ac(a2-3)[GalNAc(b1-4)]Gal(b1-4)Glc
How it was run: as §1

[34] = target: Neu5Ac(a2-8)Neu5Ac(a2-8)Neu5Ac
How it was run: as §1

[35] = target: Neu5Ac(a2-8)Neu5Ac(a2-8)Neu5Ac(a2-3)Gal(b1-4)Glc
How it was run: as §1

[36] = target: Neu5Ac(a2-8)Neu5Ac(a2-8)Neu5Ac(a2-3)[GalNAc(b1-4)]Gal(b1-4)Glc
How it was run: as §1

[37] = target: Neu5Ac(a2-8)Neu5Ac(a2-8)Neu5Ac(a2-8)Neu5Ac(a2-3)[GalNAc(b1-4)]Gal(b1-4)Glc
How it was run: as §1

[38] = target: Neu5Ac(b2-6)Gal(b1-4)GlcNAc
How it was run: as §1

Neu5Ac(b2-6)GalNAc = target: Neu5Ac(b2-6)GalNAc
How it was run: as §1

[39] = target: Neu5Ac9Ac(a2-3)Gal(b1-3)GlcNAc
How it was run: as §1

[40] = target: Neu5Ac9Ac(a2-3)Gal(b1-4)GlcNAc
How it was run: as §1

[41] = target: Neu5Ac9Ac(a2-6)Gal(b1-4)GlcNAc
How it was run: as §1

[42] = target: Neu5Gc(a2-3)Gal(b1-3)GlcNAc
How it was run: as §1

[43] = target: Neu5Gc(a2-3)Gal(b1-3)[Fuc(a1-4)]GlcNAc
How it was run: as §1

Neu5Gc(a2-3)Gal(b1-4)Glc = target: Neu5Gc(a2-3)Gal(b1-4)Glc
How it was run: as §1

[44] = target: Neu5Gc(a2-3)Gal(b1-4)GlcNAc
How it was run: as §1

[45] = target: Neu5Gc(a2-3)Gal(b1-4)[Fuc(a1-3)]GlcNAc
How it was run: as §1

[46] = target: Neu5Gc(a2-6)Gal(b1-4)GlcNAc
How it was run: as §1

Neu5Gc(a2-6)GalNAc = target: Neu5Gc(a2-6)GalNAc
How it was run: as §1

[47] = target: Neu5Gc(b2-6)Gal(b1-4)GlcNAc
How it was run: as §1

B1: cupB6 (Pseudomonas aeruginosa), Q02SP7 (protein)
chain: MSMRLFPGRVSLRRRPGAQARQALVLGLCCLTGGQAWALNEVALNCSFGNGKGLPWRVVNELTSGTAKGTVLFARPVSLFLSYKPQASQEAHELVLGGNWSGVGYPGPYGTVASDVKGIGYRISVDAQDGVKRVIPVDNQPHALDKRVTSFSGSTTSDYLQELVLTVDPGELPAGDLKVTSVSGSATLNLWAVDRLKGEASIGSVLAVPADNYPTGVCRKPYSLIGPASIAIGGGPPPPPIPKKCKVEVGREINVKLGSVALKNFPRVNDTSTERSFDISLSECAALAKPEIAFRDKYVSAQQADPTILSLKSGGAAGFGIVVKNGLDQQRIRFDGTPYPMRRVGDSADLPLSAAYIRIGAEGELKAGVADGAAEFTFTFP
glycan array binding signal (z-score) [1]: 0.376
glycan array binding signal (z-score) [2]: 0.16
glycan array binding signal (z-score) [3]: 0.091
glycan array binding signal (z-score) [4]: -0.239
glycan array binding signal (z-score) [5]: 0.086
glycan array binding signal (z-score) [6]: -0.119
glycan array binding signal (z-score) (Neu5Ac(a2-3)GalNAc): -0.166
glycan array binding signal (z-score) [7]: -0.177
glycan array binding signal (z-score) [8]: -0.157
glycan array binding signal (z-score) [9]: 0.036
glycan array binding signal (z-score) [10]: 0.089
glycan array binding signal (z-score) [11]: -0.129
glycan array binding signal (z-score) (Neu5Ac(a2-6)Gal): 0.026
glycan array binding signal (z-score) (Neu5Ac(a2-6)Gal(b1-4)Glc): 0.022
glycan array binding signal (z-score) [12]: -0.15
glycan array binding signal (z-score) [13]: 0.058
glycan array binding signal (z-score) [14]: 0.168
glycan array binding signal (z-score) [15]: -0.034
glycan array binding signal (z-score) [16]: -0.105
glycan array binding signal (z-score) [17]: 0.325
glycan array binding signal (z-score) [18]: -0.095
glycan array binding signal (z-score) [19]: -0.029
glycan array binding signal (z-score) [20]: -0.184
glycan array binding signal (z-score) [21]: 0.075
glycan array binding signal (z-score) [22]: 0.107
glycan array binding signal (z-score) [23]: -0.021
glycan array binding signal (z-score) [24]: -0.101
glycan array binding signal (z-score) [25]: 0.004
glycan array binding signal (z-score) [26]: 0.089
glycan array binding signal (z-score) [27]: -0.009
glycan array binding signal (z-score) [28]: -0.105
glycan array binding signal (z-score) (Neu5Ac(a2-6)GalNAc): -0.142
glycan array binding signal (z-score) [29]: 0.015
glycan array binding signal (z-score) [30]: -0.156
glycan array binding signal (z-score) [31]: -0.265
glycan array binding signal (z-score) (Neu5Ac(a2-8)Neu5Ac): -0.002
glycan array binding signal (z-score) [32]: -0.053
glycan array binding signal (z-score) [33]: 0.285
glycan array binding signal (z-score) [34]: -0.11
glycan array binding signal (z-score) [35]: -0.142
glycan array binding signal (z-score) [36]: -0.074
glycan array binding signal (z-score) [37]: -0.043
glycan array binding signal (z-score) [38]: 0.165
glycan array binding signal (z-score) (Neu5Ac(b2-6)GalNAc): -0.126
glycan array binding signal (z-score) [39]: -0.068
glycan array binding signal (z-score) [40]: -0.009
glycan array binding signal (z-score) [41]: -0.145
glycan array binding signal (z-score) [42]: -0.039
glycan array binding signal (z-score) [43]: -0.08
glycan array binding signal (z-score) (Neu5Gc(a2-3)Gal(b1-4)Glc): -0.114
glycan array binding signal (z-score) [44]: -0.071
glycan array binding signal (z-score) [45]: 0.036
glycan array binding signal (z-score) [46]: -0.049
glycan array binding signal (z-score) (Neu5Gc(a2-6)GalNAc): -0.028
glycan array binding signal (z-score) [47]: -0.096
